Results published in the supplement of paper PMC8728848.
Some of the results follow.

How the values were obtained:
Experiment in all cases: glycan array binding signal (z-score within array); higher = stronger binding
Conditions in all cases: glycan notation: IUPAC condensed, linker removed; mutation: D22R
Gal(a1-6)Glc = target: Gal(a1-6)Glc
Summary of the method: (§1)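 Columns mapping to the same glycan were averaged after glycan names were converted to IUPAC-condensed notation. The data come from 3228 arrays in the Consortium for Functional Glycomics database, limited to those with an available protein sequence. Binding is reported as a within-array Z-score averaged across arrays of one protein sequence and across linkers.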

Gal(b1-2)Gal = target: Gal(b1-2)Gal
Summary of the method: as §1

Gal(b1-3)Gal = target: Gal(b1-3)Gal
Summary of the method: as §1

Gal(b1-3)Gal(b1-4)GlcNAc = target: Gal(b1-3)Gal(b1-4)GlcNAc
Summary of the method: as §1

Gal(b1-3)GalNAc = target: Gal(b1-3)GalNAc
Summary of the method: as §1

[1] = target: Gal(b1-3)GalNAc(a1-3)[Fuc(a1-2)]Gal(b1-4)Glc
Summary of the method: as §1

[2] = target: Gal(b1-3)GalNAc(a1-3)[Fuc(a1-2)]Gal(b1-4)GlcNAc
Summary of the method: as §1

Gal(b1-3)GalNAc(b1-3)Gal = target: Gal(b1-3)GalNAc(b1-3)Gal
Summary of the method: as §1

[3] = target: Gal(b1-3)GalNAc(b1-3)Gal(a1-4)Gal(b1-4)Glc
Summary of the method: as §1

[4] = target: Gal(b1-3)GalNAc(b1-4)Gal(b1-4)Glc
Summary of the method: as §1

[5] = target: Gal(b1-3)GalNAc(b1-4)[Neu5Ac(a2-3)]Gal(b1-4)Glc
Summary of the method: as §1

Gal(b1-3)GlcNAc = target: Gal(b1-3)GlcNAc
Summary of the method: as §1

[6] = target: Gal(b1-3)GlcNAc(a1-3)Gal(b1-4)GlcNAc
Summary of the method: as §1

[7] = target: Gal(b1-3)GlcNAc(a1-6)Gal(b1-4)GlcNAc
Summary of the method: as §1

Gal(b1-3)GlcNAc(b1-2)Man = target: Gal(b1-3)GlcNAc(b1-2)Man
Summary of the method: as §1

[8] = target: Gal(b1-3)GlcNAc(b1-2)Man(a1-3)[Gal(b1-3)GlcNAc(b1-2)Man(a1-6)]Man(b1-4)GlcNAc(b1-4)GlcNAc
Summary of the method: as §1

[9] = target: Gal(b1-3)GlcNAc(b1-2)Man(a1-3)[Gal(b1-3)GlcNAc(b1-2)Man(a1-6)]Man(b1-4)GlcNAc(b1-4)[Fuc(a1-6)]GlcNAc
Summary of the method: as §1

[10] = target: Gal(b1-3)GlcNAc(b1-2)Man(a1-3)[GlcNAc(b1-4)][Gal(b1-3)GlcNAc(b1-2)Man(a1-6)]Man(b1-4)GlcNAc(b1-4)GlcNAc
Summary of the method: as §1

[11] = target: Gal(b1-3)GlcNAc(b1-2)[Gal(b1-3)GlcNAc(b1-6)]Man(a1-6)[Gal(b1-3)GlcNAc(b1-2)Man(a1-3)]Man(b1-4)GlcNAc(b1-4)GlcNAc
Summary of the method: as §1

[12] = target: Gal(b1-3)GlcNAc(b1-3)Gal(b1-3)GlcNAc
Summary of the method: as §1

[13] = target: Gal(b1-3)GlcNAc(b1-3)Gal(b1-4)Glc
Summary of the method: as §1

[14] = target: Gal(b1-3)GlcNAc(b1-3)Gal(b1-4)GlcNAc
Summary of the method: as §1

[15] = target: Gal(b1-3)GlcNAc(b1-3)Gal(b1-4)GlcNAc(b1-2)Man(a1-3)[Gal(b1-3)GlcNAc(b1-3)Gal(b1-4)GlcNAc(b1-2)Man(a1-6)]Man(b1-4)GlcNAc(b1-4)GlcNAc
Summary of the method: as §1

[16] = target: Gal(b1-3)GlcNAc(b1-3)Gal(b1-4)GlcNAc(b1-2)[Gal(b1-3)GlcNAc(b1-3)Gal(b1-4)GlcNAc(b1-6)]Man(a1-6)[Gal(b1-3)GlcNAc(b1-3)Gal(b1-4)GlcNAc(b1-2)Man(a1-3)]Man(b1-4)GlcNAc(b1-4)[Fuc(a1-6)]GlcNAc
Summary of the method: as §1

[17] = target: Gal(b1-3)GlcNAc(b1-3)Gal(b1-4)GlcNAc(b1-3)Gal(b1-4)GlcNAc(b1-2)[Gal(b1-3)GlcNAc(b1-3)Gal(b1-4)GlcNAc(b1-3)Gal(b1-4)GlcNAc(b1-6)]Man(a1-6)[Gal(b1-3)GlcNAc(b1-3)Gal(b1-4)GlcNAc(b1-3)Gal(b1-4)GlcNAc(b1-2)Man(a1-3)]Man(b1-4)GlcNAc(b1-4)[Fuc(a1-6)]GlcNAc
Summary of the method: as §1

[18] = target: Gal(b1-3)GlcNAc(b1-3)Gal(b1-4)GlcNAc(b1-6)[Gal(b1-3)GlcNAc(b1-3)]Gal(b1-4)Glc
Summary of the method: as §1

[19] = target: Gal(b1-3)GlcNAc(b1-3)Gal(b1-4)[Fuc(a1-3)]GlcNAc
Summary of the method: as §1

[20] = target: Gal(b1-3)GlcNAc(b1-3)Gal(b1-4)[Fuc(a1-3)]GlcNAc(b1-6)[Gal(b1-3)GlcNAc(b1-3)]Gal(b1-4)Glc
Summary of the method: as §1

[21] = target: Gal(b1-3)GlcNAc(b1-3)GalNAc
Summary of the method: as §1

[22] = target: Gal(b1-3)GlcNAc(b1-6)Gal(b1-4)GlcNAc
Summary of the method: as §1

[23] = target: Gal(b1-3)GlcNAc(b1-6)GalNAc
Summary of the method: as §1

[24] = target: Gal(b1-3)GlcNAc(b1-6)[Gal(b1-3)]GalNAc
Summary of the method: as §1

Gal(b1-3)GlcNAc6S = target: Gal(b1-3)GlcNAc6S
Summary of the method: as §1

[25] = target: Gal(b1-3)[Fuc(a1-4)]GlcNAc
Summary of the method: as §1

[26] = target: Gal(b1-3)[Fuc(a1-4)]GlcNAc(b1-2)Man
Summary of the method: as §1

[27] = target: Gal(b1-3)[Fuc(a1-4)]GlcNAc(b1-2)Man(a1-3)[Gal(b1-3)[Fuc(a1-4)]GlcNAc(b1-2)Man(a1-6)]Man(b1-4)GlcNAc(b1-4)[Fuc(a1-6)]GlcNAc
Summary of the method: as §1

[28] = target: Gal(b1-3)[Fuc(a1-4)]GlcNAc(b1-3)Gal(b1-3)[Fuc(a1-4)]GlcNAc
Summary of the method: as §1

[29] = target: Gal(b1-3)[Fuc(a1-4)]GlcNAc(b1-3)Gal(b1-4)[Fuc(a1-3)]GlcNAc
Summary of the method: as §1

[30] = target: Gal(b1-3)[Fuc(a1-4)]GlcNAc(b1-6)GalNAc
Summary of the method: as §1

[31] = target: Gal(b1-3)[GlcNAc(b1-6)]GalNAc
Summary of the method: as §1

[32] = target: Gal(b1-3)[Neu5Ac(a2-6)]GalNAc
Summary of the method: as §1

[33] = target: Gal(b1-3)[Neu5Ac(a2-6)]GlcNAc(b1-4)Gal(b1-4)Glc
Summary of the method: as §1

[34] = target: Gal(b1-3)[Neu5Ac(b2-6)]GalNAc
Summary of the method: as §1

Gal(b1-4)Gal = target: Gal(b1-4)Gal
Summary of the method: as §1

[35] = target: Gal(b1-4)GalNAc(a1-3)[Fuc(a1-2)]Gal(b1-4)GlcNAc
Summary of the method: as §1

B1: MpL2 (Macrolepiota procera) (protein)
chain: MSTQVSSGQTYKITNVKAGTVIRLSGEDNKSIIGYPYHSGKNQQWTFNWTGKAWTLRSASSGSYLGIEGTPADGTRLVAVNDPFEWHIWRDEANENAFRIFVPFTNYNLDLSGYGDTTPGTPVQLWWTWEGLHQTWTIDRP
Gal(a1-6)Glc
  glycan array binding signal (z-score): -0.101
Gal(b1-2)Gal
  glycan array binding signal (z-score): 0.037
Gal(b1-3)Gal
  glycan array binding signal (z-score): 0.078
Gal(b1-3)Gal(b1-4)GlcNAc
  glycan array binding signal (z-score): -0.195
Gal(b1-3)GalNAc
  glycan array binding signal (z-score): -0.346
[1]
  glycan array binding signal (z-score): 0.271
[2]
  glycan array binding signal (z-score): -0.921
Gal(b1-3)GalNAc(b1-3)Gal
  glycan array binding signal (z-score): -0.315
[3]
  glycan array binding signal (z-score): 0.012
[4]
  glycan array binding signal (z-score): -0.36
[5]
  glycan array binding signal (z-score): -0.265
Gal(b1-3)GlcNAc
  glycan array binding signal (z-score): -0.236
[6]
  glycan array binding signal (z-score): 0.436
[7]
  glycan array binding signal (z-score): -0.177
Gal(b1-3)GlcNAc(b1-2)Man
  glycan array binding signal (z-score): 0.189
[8]
  glycan array binding signal (z-score): 1.15
[9]
  glycan array binding signal (z-score): -0.234
[10]
  glycan array binding signal (z-score): 0.088
[11]
  glycan array binding signal (z-score): 1.01
[12]
  glycan array binding signal (z-score): -0.167
[13]
  glycan array binding signal (z-score): -0.273
[14]
  glycan array binding signal (z-score): -0.301
[15]
  glycan array binding signal (z-score): 1.18
[16]
  glycan array binding signal (z-score): 10.4
[17]
  glycan array binding signal (z-score): 10.8
[18]
  glycan array binding signal (z-score): 0.452
[19]
  glycan array binding signal (z-score): -0.17
[20]
  glycan array binding signal (z-score): -0.28
[21]
  glycan array binding signal (z-score): -0.136
[22]
  glycan array binding signal (z-score): -0.228
[23]
  glycan array binding signal (z-score): 0.107
[24]
  glycan array binding signal (z-score): 1.13
Gal(b1-3)GlcNAc6S
  glycan array binding signal (z-score): -0.366
[25]
  glycan array binding signal (z-score): -0.377
[26]
  glycan array binding signal (z-score): 0.169
[27]
  glycan array binding signal (z-score): 0.334
[28]
  glycan array binding signal (z-score): -0.2
[29]
  glycan array binding signal (z-score): -0.392
[30]
  glycan array binding signal (z-score): 1.05
[31]
  glycan array binding signal (z-score): -0.149
[32]
  glycan array binding signal (z-score): -0.787
[33]
  glycan array binding signal (z-score): -0.326
[34]
  glycan array binding signal (z-score): -0.168
Gal(b1-4)Gal
  glycan array binding signal (z-score): 0.284
[35]
  glycan array binding signal (z-score): 0.023
